Results: PubChem BioAssay AID1240 (Sanford-Burnham Center for Chemical Genomics, 2008)
Screen size: about 50,000 compounds; about 800 (1.6%) showed an effect of 50% or more. Some of the results follow.

Each molecule was assayed against Bcl-2-like protein 10 (Homo sapiens) (UniProt Q9HD36) (assay: TR3 peptide-Bcl-B binding displacers, biochemical primary FP assay, phenotype converters (AID 1240;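 note: 0% = Bcl-B with tracer peptide and DMSO and 100% = tracer peptide lacking Bcl-B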)). Details: GST-Bcl-B / FITC-TR3 peptide fluorescence polarization; stronger effect = higher value; compound at 3.75 mg/L.
Chain of UniProt Q9HD36 (Q9HD36 whole entry, looked up): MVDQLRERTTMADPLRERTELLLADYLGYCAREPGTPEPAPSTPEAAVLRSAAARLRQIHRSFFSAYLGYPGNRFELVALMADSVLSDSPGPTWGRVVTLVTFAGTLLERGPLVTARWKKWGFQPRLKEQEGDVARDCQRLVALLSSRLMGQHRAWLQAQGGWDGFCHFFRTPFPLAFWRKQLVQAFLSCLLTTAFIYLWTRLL
With CCNC(=O)c1c(-c2c(Cl)cccc2Cl)noc1C the displacement was -0.6%.
In the case of O=C1CC(N(Cc2ccc3c(c2)OCO3)C(=O)c2ccc(Cl)cc2)C(=O)N1c1ccc(F)cc1 (configuration not stated), the displacement is reported as -2.2%.
In the case of CCOC(=O)/C(=C\c1ccncc1)C(=O)c1cc(C(C)=O)c(Nc2ccccc2)s1, the displacement is reported as -1.4%.
CC(C)Cn1c(CN2C(=O)c3ccccc3C2=O)nc2ccccc2c1=O showed a displacement of 0.2%.
With COCCCNC(=O)CN(c1ccc(Cl)c(C(F)(F)F)c1)S(=O)(=O)c1ccccc1 the displacement was 13.8%.
COc1ccc(C(=O)NCC23CC4CC(CC(C4)C2)C3)cc1 gave a displacement of -2.2%.
For C=C(C)c1cccc(C(C)(C)NC(=O)Nc2cc(C)ccn2)c1, the displacement was -15%.
For Fc1ccc(Cn2cc(/C=N/n3cnnc3)c3ccccc32)cc1, the displacement was -6.4%.
In the case of CN(C)CC(O)CN(c1ccccc1)S(=O)(=O)c1ccc([N+](=O)[O-])cc1 (configuration not stated), the displacement is reported as 1.9%.
In the case of COc1ccc(OC)c(/C=C2/C(=O)NC(=O)N(c3ccc(C(C)C)cc3)C2=O)c1, the displacement is reported as -2.8%.
Work on COc1ccc2c(c1)-c1c(ssc1=S)C(C)(C)N2CC(=O)c1ccccc1 yielded a displacement of 6.5%.
CCCCOC(=O)c1ccc(NC(=O)c2ccc(OC)c(Br)c2)cc1 was tested, and the displacement was 2.4%.
CCOC(=O)c1c(NC(=O)C(Sc2ccccc2)c2ccccc2)sc(C(C)=O)c1C (configuration not stated) showed a displacement of 17.1%.
With Cc1cc(/C=N/n2cnnc2)c(C)n1-c1ccc(Br)cc1 the displacement was 8.8%.
COC(=O)C1=C(C)N(C)C(C)=C(C(=O)OC)C1c1ccc(-c2ccccc2)cc1 was tested, and the displacement was -14.2%.
Cc1cccc(C)c1NC(=O)c1ccc(-c2ccc(Cl)cc2Cl)o1 was tested, and the displacement was 2.1%.
In the case of O=C(Nc1ccc(-c2nc3ccccc3o2)cc1)c1ccc(-c2ccc([N+](=O)[O-])cc2)o1, the displacement is reported as 17.1%.
NS(=O)(=O)c1ccc(NS(=O)(=O)c2ccc(F)cc2)cc1 gave a displacement of -0.6%.
C=CCNC(=O)C(=O)NCCc1ccc(F)cc1 gave a displacement of 11.7%.
Cc1cccc(-n2c(C)cc(/C=C3/NC(=S)NC3=O)c2C)c1 showed a displacement of -38.6%.
With C=CCN1C(=O)/C(=C\c2ccc(-c3ccc([N+](=O)[O-])cc3Br)o2)C(=O)NC1=S the displacement was 9.8%.
CC(C)(C)C1CCc2c(sc(NC(=O)/C=C/c3ccco3)c2C(N)=O)C1 (configuration not stated) showed a displacement of 3%.
CCN(C(=O)c1ccccc1F)c1ccccc1 was tested, and the displacement was -1.9%.
COc1ccc(-n2c(NN)nc3sc4c(c3c2=O)CCCC4)cc1 was tested, and the displacement was -9.9%.
With O=C1C2C3CCC(O3)C2C(=O)N1c1ccc(Cl)cc1 (configuration not stated) the displacement was -6%.
With CCOC(=O)C1=C(C)N=c2s/c(=C\c3ccc(C(=O)O)cc3)c(=O)n2C1c1ccc(OC)c(OC)c1 (configuration not stated) the displacement was -22.8%.
Work on COc1ccc(Cn2nnc(-c3ccccc3)n2)cc1 yielded a displacement of -1.9%.
CCOC(=O)c1c(N)sc(C(=O)N2CCCCCC2)c1C showed a displacement of -13.8%.
For COC(=O)c1cc(NC(=O)c2ccc(OC)cc2)cc(C(=O)OC)c1, the displacement was 7.3%.
Work on Cc1ccc(Cl)c(OCCNC(C)(C)C)c1 yielded a displacement of 5.8%.
In the case of CCOC(=O)c1cccc(NC(=O)c2c(OC)cccc2OC)c1, the displacement is reported as -1.3%.
Molecule CCC(=O)Nc1ccc2nn(-c3ccc(C)c(Cl)c3)nc2c1 has a displacement of 9.1%.
For O=C(Nc1cc(C(F)(F)F)ccc1Cl)c1ccccc1[N+](=O)[O-], the displacement was 2.5%.
COc1ccccc1C(=O)N1c2ccccc2C(Nc2ccccc2)CC1C (configuration not stated) gave a displacement of 5.6%.
COC(=O)C1=C(C)NC(C)=C(C(=O)OC)C1c1cccc(Oc2ccccc2)c1 was tested, and the displacement was 5.4%.
CC(C)(C)c1ccc(NC(=O)c2ccc(Br)cc2)c([N+](=O)[O-])c1 was tested, and the displacement was 14.4%.
Molecule O=C(O)c1ccc(Oc2ccc3c(c2)C(=O)N(c2ccc([N+](=O)[O-])cc2)C3=O)cc1 has a displacement of 2%.
Molecule O=C(NNC(=O)c1ccc([N+](=O)[O-])cc1)Nc1ccccc1 has a displacement of -5.4%.
For CCCC(=O)N1CCN(c2cc(C)c(C(C)=O)cc2F)CC1, the displacement was -14.1%.
Molecule Cc1ccc(-n2nc3cc(C)c(NC(=O)c4ccccc4[N+](=O)[O-])cc3n2)cc1 has a displacement of 7.8%.
With CN1C(=O)/C(=C\C=C\c2ccc(Br)cc2)SC1=S the displacement was 3.6%.
For COc1cc(/C=C2\Sc3ccccc3C2=O)ccc1OS(=O)(=O)c1ccc(C)cc1, the displacement was 15.5%.
CN1CCC(=NNC(=O)C(=O)NC2CCCC2)CC1 gave a displacement of -23.9%.
For CC(C)(C)c1ccc(-c2nc3ccccc3[nH]2)cc1, the displacement was -2.4%.
CC1=NN(C(=O)c2ccccc2)C(C)(O)C1(C)C (configuration not stated) showed a displacement of 11.4%.
With O=C(O)C1C2C=CC(O2)C1C(=O)NCc1ccc(Cl)c(Cl)c1 (configuration not stated) the displacement was -4.7%.
For Cc1ccc(OCC(=O)N/N=C\c2c(Br)cc(Br)c(O)c2Br)cc1, the displacement was 7.9%.
CCOc1ccc(S(=O)(=O)N(CC(=O)NCCCOC)c2ccc(C)cc2)cc1 showed a displacement of -3.5%.
CC1(C)CC(=O)C2=C(C1)Nc1ccccc1N(C(=O)c1ccccc1)C2c1ccc(C#N)cc1 (configuration not stated) showed a displacement of -7.4%.
CCOc1cccc(C2C(C(=O)OCCOC)=C(C)NC3=C2C(=O)CC(C)(C)C3)c1 (configuration not stated) was tested, and the displacement was -3%.
CCOC(=O)c1ccccc1N/C=C/C(=O)c1ccc(OC)cc1 gave a displacement of -8%.
CCc1cccc(CC)c1NC(=O)c1ccccc1OC showed a displacement of -4.4%.
In the case of C(#CCSc1nc2ccccc2[nH]1)CSc1nc2ccccc2[nH]1, the displacement is reported as 7.3%.
Work on O=C(CSc1nnnn1-c1ccccc1)Nc1ccc(Br)cc1 yielded a displacement of -11.8%.
CCCCNCCCCCCOc1ccccc1C(C)(C)C showed a displacement of 15.7%.
COCCOC(=O)C1=C(C)NC2=C(C(=O)CCC2)C1c1ccc(Cl)cc1Cl (configuration not stated) showed a displacement of 0.6%.
In the case of COc1ccc(-n2c(O)c(C=NCc3ccc(F)cc3)c(=O)[nH]c2=O)cc1, the displacement is reported as 12.4%.
For CCOc1cc(C(=O)Nc2ncccc2C)cc(OCC)c1OCC, the displacement was 2.9%.
O=C(CN1CCCCC1)Nc1c(-c2ccccc2)c2cc(Br)ccc2[nH]c1=O gave a displacement of -21.7%.
Cn1cccc1-c1cc(C(=O)N/N=C/c2cccs2)[nH]n1 gave a displacement of 3.4%.
For C=CCN1C(=O)/C(=C\c2cn(Cc3ccc([N+](=O)[O-])cc3)c3ccccc23)C(=O)NC1=S, the displacement was 87.4%.
COc1ccc(-c2nc(-c3cc(OC)c(O)c(OC)c3)[nH]c2-c2ccc(OC)cc2)cc1 was tested, and the displacement was 12.5%.
CC1(C)Cc2ccccc2/C(=C/C(=O)N2CCCCCC2)N1 gave a displacement of -3.8%.
O=C(NC(=S)Nc1ccc2oc(-c3ccc(I)cc3)nc2c1)c1ccccc1Cl was tested, and the displacement was 9.5%.
For O=C(NC(Cc1ccccc1)C(=O)Nc1ccccn1)OCc1ccccc1 (configuration not stated), the displacement was 3.9%.
O=C(c1ccccc1)c1cc(Cl)ccc1N=Cc1ccc([N+](=O)[O-])s1 showed a displacement of 2.7%.
O=C(COc1ccc(Cl)cc1)NNC(=O)c1ccc([N+](=O)[O-])cc1[N+](=O)[O-] was tested, and the displacement was -6.1%.
